The record followed here is paper PMC6212790.

The list shows a part of the results. At the low end of the ranking the order means little.

The target of the assay is T1, GST-Rok (full length) (UniProt O34857).
T1 sequence: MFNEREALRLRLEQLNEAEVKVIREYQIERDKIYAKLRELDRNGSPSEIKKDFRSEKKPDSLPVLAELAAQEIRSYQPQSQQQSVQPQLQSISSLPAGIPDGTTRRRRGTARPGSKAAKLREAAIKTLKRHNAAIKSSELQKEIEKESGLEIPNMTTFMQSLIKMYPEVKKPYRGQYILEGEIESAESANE
As to the kind of experiment: protein binding microarray.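 Also: rank score from −0.5 (least bound) to 0.5 (best bound).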 The following applies: Rok is a gene silencer of Bacillus subtilis; high values mean tight binding; most listed sequences are background and not binding sites; double strand, one strand shown.
Consider AAATGAAG, for which the binding signal was -0.00523 E-score. As to AGCACCAG, the binding signal is -0.18 E-score. The sequence CCGCGTGA showed a binding signal of -0.0263 E-score.

With ATCAATTG, the binding signal was 0.221 E-score. The value for ATCGGATC was 0.0732 E-score; that for CAAATCTA was 0.377 E-score; that for ACATGTAG was 0.338 E-score. The value for AGTAGTTA was 0.434 E-score. The value for CTACTTCA was 0.175 E-score. Regarding ACTGCTAA, the binding signal stood at 0.122 E-score. On to CAAACTTG, for which the binding signal was found to be 0.0756 E-score. For the sequence TGAGCGCA, the binding signal is -0.219 E-score. For the sequence ATAACTGG, the binding signal was determined as 0.191 E-score. With AACCCCGC, the binding signal is -0.394 E-score. To CTTGAGAC belongs -0.0563 E-score; to TCAGCCAA, -0.0964 E-score; to CACGGGGA, -0.174 E-score. For CGCCTAAA, the binding signal is -0.249 E-score. To CGGGTTGA belongs -0.0591 E-score; to CCCTCTGA, -0.247 E-score. The value for AGTTCCAC was 0.00523 E-score; that for ACAAGACA was -0.0301 E-score; that for ATTCCCAC was -0.0472 E-score.

AGACGGCT had a binding signal of -0.17 E-score. To CAGGTTTA belongs -0.222 E-score; to ATGGCGAC, -0.218 E-score. To AACCCCGG belongs -0.24 E-score; to TCCTCCAA, -0.119 E-score; to GCTTAGCA, -0.109 E-score. GCACAGGA displayed a binding signal of -0.164 E-score. On to ATCAGGGC, for which the binding signal was -0.0319 E-score. To CGTTCCTC belongs -0.0344 E-score.

For CTTACTGC, the binding signal is 0.145 E-score. On to CGGAGACG, for which the binding signal was -0.164 E-score. Consider CATTTACG, for which the binding signal is 0.109 E-score. Take AGGAGCTG: the binding signal is -0.214 E-score.

For CCCGGAGG, the binding signal was -0.443 E-score. In the case of CATTCCAA, the binding signal is -0.00431 E-score.

The sequence AAGTACTT showed a binding signal of 0.308 E-score. In the case of TGTGGAAA, the binding signal was -0.174 E-score. Consider ACCAGACA, for which the binding signal is -0.0398 E-score. The value for CTCTCCAG was -0.311 E-score; that for GCCAGGTA was 0.0369 E-score; that for GATGGATA was 0.0355 E-score.

Sequence TAGAAATA showed a binding signal of 0.409 E-score. Sequence AGAGCGGG had a binding signal of -0.16 E-score. To ATACGGCG belongs -0.274 E-score; to ACACTGAA, 0.0821 E-score.

On to ACGGACCA, for which the binding signal is -0.198 E-score. TGGAGCAA returned a binding signal of -0.0852 E-score.

TGTGTTAA displayed a binding signal of -0.0202 E-score. Turning to CGCACTAG, the binding signal is -0.115 E-score. The sequence GAGGAGCA returned a binding signal of -0.351 E-score. To ACACCGTG belongs -0.19 E-score; to CAAAGGAG, -0.224 E-score. The value for CCCGGCCA was -0.361 E-score; that for ACGCGATG was 0.0909 E-score. To TGAGTACA belongs 0.193 E-score. For GAGCTGCA, the binding signal is -0.0813 E-score. CCCCCCAC gave a binding signal of -0.431 E-score. The value for AGGGCCCC was -0.456 E-score; that for TGTCAGAA was 0.0237 E-score; that for AGGCATTC was 0.0492 E-score. On to TATGTAAA, for which the binding signal worked out at 0.328 E-score. As for AGGAGTAA, the binding signal was -0.0247 E-score. To TACTGGCA belongs 0.106 E-score; to TATTACGA, 0.296 E-score; to ATTCATTC, 0.173 E-score. Regarding CGCTTTGA, the binding signal is -0.038 E-score. Turning to ACAGCCGA, the binding signal was -0.173 E-score. The sequence AGATGATC came in with a binding signal of -0.0541 E-score.

Turning to CCTGCCCA, the binding signal was -0.326 E-score.

CTCCGCAA registered a binding signal of -0.0761 E-score.

With GATGTCCC, the binding signal was -0.307 E-score.

As to CCCATGGA, the binding signal is -0.279 E-score. The value for GGAGTGTA was 0.0672 E-score; that for GGCGGTAC was -0.21 E-score; that for AAGGAAAG was -0.377 E-score. In turn, CACGCCGG returned a binding signal of -0.456 E-score. As for ATGATAAC, the binding signal came out at 0.234 E-score. Sequence AATAAGCA returned a binding signal of 0.121 E-score.

As for GTCTGGTA, the binding signal was determined as 0.241 E-score. The value for CATTCACG was -0.0781 E-score; that for CGCTTGCA was -0.102 E-score; that for AAGCGCTG was -0.209 E-score. For ATTAATAC, the binding signal was determined as 0.353 E-score. Turning to CTGGATCA, the binding signal turned out to be 0.141 E-score. To TGGTCCAA belongs -0.0958 E-score; to GTCCTTTA, -0.239 E-score; to CACGGCCC, -0.351 E-score. With ACGACTGA, the binding signal was 0.008 E-score.

AGCAGGTC gave a binding signal of -0.218 E-score.

The sequence GATCGTGC returned a binding signal of 0.0393 E-score. To CAAGACTG belongs -0.0696 E-score; to GAGAATAC, 0.18 E-score; to GCGCCCCC, -0.375 E-score. The value for GTCCGAAA was 0.0729 E-score. The value for GACTCAGC was -0.139 E-score. In the case of AGTTGGTG, the binding signal stood at 0.0888 E-score.

In the case of AAGCGCGT, the binding signal was -0.078 E-score. GATACACA came in with a binding signal of 0.225 E-score. The value for CTGCGCAG was 0.0917 E-score; that for AGAATATG was 0.258 E-score; that for AGTCAGGC was 0.0406 E-score. The value for CAGACCCA was -0.0858 E-score; that for CTCACGAC was -0.105 E-score; that for ATCTCACA was 0.0771 E-score. To ATATACGG belongs 0.0553 E-score; to ATAGATAA, 0.297 E-score.
